Measured values as given in PubChem BioAssay AID686979 (National Center for Advancing Translational Sciences (NCATS), 2013).
Screen size: about 420,000 compounds; about 50,000 (12%) were called active. The inconclusive results got no clear call from the source; some entries with a clear call stand among them for comparison. The call rests on the fitted dose curve; in most records, active means well fitted inhibition curve with a large enough effect; inconclusive means small, poorly fitted or top-dose-only effect; inactive means flat fitted curve, though single readings scatter. No potency is given beside an inconclusive call; the fits are too rough.

Experiment: qHTS for Inhibitors of human tyrosyl-DNA phosphodiesterase 1 (TDP1): qHTS in cells in presence of CPT; further: nearly all actives have a fitted effect of over 55% in size
Conditions: chicken DT40 Tdp1-/-;hTDP1 cells + 20 nM CPT, ATP luminescence, 48 h; activity change, negative = growth inhibition: at 46.2 µM (top of the series)
Outline: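 Chicken DT40 Tdp1-/- cells complemented with human TDP1, 400 cells/well, exposed to compounds plus 20 nM camptothecin for at least 48 h at 37 C; viability read as ATP content by CellTiter-Glo luminescence.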
On the % scale 0 is the no-effect control and ±100 the full control effect; potency means the concentration at half of the fitted maximal effect; tags describe the fitted curve by direction and shape.

SMILES	Potency	activity change, negative = growth inhibition
O=C(/C=C/c1ccc2c(c1)OCCO2)c1ccc(O)cc1	inconclusive [inhibitor, single point]	–
O=C(Nc1cccc2ccccc12)c1ccc(OC(=S)N2CCOCC2)cc1	active: 23.1 µM	–
O=C(NCC(=O)N1CCN(Cc2ccccc2)CC1)c1cc(Cl)cc([N+](=O)[O-])c1	active: 16.4 µM	–
CCCCNC(=S)NNC(=O)c1c(Cl)c(C)nn1C	active: 23.1 µM	–
COc1ccc(-c2nc(=S)c3c([nH]2)Oc2ccc(C)cc2C3)cc1O	–	inactive: 3.28%
Cc1ccc(S(=O)(=O)N(C)C)cc1NC(=S)NC12CC3CC(CC(C3)C1)C2	inconclusive [inhibitor, single point]	–
c1ccc(C[C@H]2CNCCN2CC2CCCCC2)cc1	inconclusive [inhibitor, single point]	–
CCOC(=O)N1CCN(CCC(=O)c2ccc(Br)cc2)CC1	active: 2.91 µM	–
O=C(C1CCCN(S(=O)(=O)c2cccc3nonc23)C1)N1CCN(c2cccc(C(F)(F)F)c2)CC1 (configuration not stated)	active: 14.6 µM	–
COc1ccc(C(CNC(=O)COc2ccc(Cl)c(C)c2)N2CCCCC2)cc1 (configuration not stated)	inconclusive [inhibitor, single point]	–
Cc1ccc(S(=O)(=O)N2CCCC2C(=O)Nc2ccc(Br)cc2)cc1 (configuration not stated)	inconclusive [inhibitor, single point]	–
c1ccc(COC(CN2CCCCCC2)CN2CCCCCC2)cc1	active: 10.3 µM	–
CCOc1ccc(C(=O)c2cn(Cc3cccc(OC)c3)c3cc4c(cc3c2=O)OCO4)cc1	inconclusive [inhibitor, single point]	–
COc1ccccc1NC(=O)COc1ccc(Br)cc1CNC1CCCC1	inconclusive [inhibitor, single point]	–
O=C(CSc1ncc(-c2ccc(Cl)cc2)[nH]1)Nc1ccccc1F	inconclusive [inhibitor, single point]	–
COc1ccc(C2NC(c3ccc4c(c3)OCO4)=CC(c3ccccc3O)N2)cc1OC (configuration not stated)	active: 12.6 µM	–
Cn1c(SCc2nc3ccccc3[nH]2)nnc1-c1cccnc1	–	inactive: -18.8%
Cc1ccc(NS(=O)(=O)c2ccc(NC(=O)c3ccc(-c4ccccc4)cc3)cc2)c(C)c1	active: 23.1 µM	–
N#C/C(=C/c1ccc(N2CCCCCC2)o1)c1ccc(Cl)cc1	active: 14.6 µM	–
O=C(Cc1cccc2ccccc12)NO	–	inactive: -1.61%
CC1=[N+](C)c2ccc3ccccc3c2C1(C)C	active: 2.59 µM	–
Cc1cc(Cl)ccc1NC(=S)NCc1ccccc1	inconclusive [inhibitor, single point]	–
